Among all 44,000 compounds or so, about 340 (0.77%) were called active. Inconclusive results, whose numbers are uncertain, are shown with a selection of clear calls. Calls come from the whole dose curve; as a rule, active = well fitted inhibition curve with a large enough effect; inconclusive = small, poorly fitted or top-dose-only effect; inactive = flat fitted curve, though single readings scatter. No potency is given beside an inconclusive call; the fits are too rough.
Test: Acumen qHTS Assay for Inhibitors of the mTORC1 Signaling Pathway in MEF (Tsc2-/-, p53-/-) Cells: Sytravon; note: nearly all actives have a fitted effect of over 50% in size;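 for activity change, negative = inhibition: plate controls were DMSO for no effect and rapamycin for full effect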
Conditions: phospho-rpS6 immunofluorescence/PI, 24 h; series mostly up to 38.3 µM; activity change, negative = inhibition: at the top concentration
Method in brief: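 Plate MEFs (Tsc2-/-, p53-/-, empty vector) in DMEM/10% FBS; after 24 h add compound, incubate 24 h at 37 degree Celsius; fix in PFA/TX-100, block, stain phospho-rpS6 and 10 uM PI; scan at 488 nm; report % positive cells.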
Potency is the fitted concentration of half-maximal effect; tags give direction and shape of the fitted curve.

SMILES	activity change, negative = inhibition	Potency
COc1ccc(SCc2cc(=O)c3ccc(C)c(C)c3[nH]2)cc1	inactive: 0.722%	–
Cc1ccc(NC(=O)c2nnn(Cc3ccccc3)c2N)cc1C	–	inconclusive [activator, partial curve, poor fit]
Cc1ccc2nc(N(CCCN(C)C)C(=O)c3ccco3)sc2c1	–	inconclusive [falling, partial curve, poor fit]
COC(=O)c1sc2cccc(F)c2c1S(=O)(=O)N1CCN(c2cccc(OC)c2)CC1	–	inconclusive [falling, partial curve, poor fit]
Cc1nnc(N2CCCC(C(=O)NCc3ccccc3)C2)c2nn(-c3ccccc3)c(C)c12 (configuration not stated)	inactive: -2.35%	–
O=C(CCn1cnc2onc(-c3ccc(F)cc3)c2c1=O)Nc1ccc(F)c(Cl)c1	–	inconclusive [falling, partial curve, poor fit]
Cc1ccc2c(CC(=O)Nc3cccc(C(F)(F)F)c3)coc2c1	–	inconclusive [falling, partial curve, poor fit]
Cc1oc2ncn(CC(C)C)c(=O)c2c1C(=O)NCCc1ccc(Cl)cc1	inactive: 1.27%	–
CC(=O)c1ccc(S(=O)(=O)Nc2ccc(-c3ccc(N4CCCCC4)nn3)cc2)cc1	inactive: -3.14%	–
COc1ccccc1CNC(=O)c1ccc(-c2nc(CS(=O)c3ccc(C)cc3)c(C)o2)cc1 (configuration not stated)	–	inconclusive [falling, single point]
CCCc1oc2ccc(NS(=O)(=O)c3ccc(OCC)cc3)cc2c1C(=O)OCC	–	active: 14.7 µM
COc1cc2c(cc1OC)C(COc1ccc3c(C)cc(=O)oc3c1)N(C(=O)c1ccc(C)cc1)CC2 (configuration not stated)	inactive: -9.29%	–
COCCCNc1nc2c(c(=O)n(Cc3ccccc3)c(=O)n2C)n1C	–	inconclusive [falling, single point]
CCOc1ccc(Nc2nc(N)c(C(=O)c3ccccc3Cl)s2)cc1	–	inconclusive [falling, partial curve, poor fit]
COc1ccc(C(=O)Nc2ccc(N3CCN(c4ccccc4)CC3)c(C(=O)O)c2)cc1	inactive: -0.982%	–
CCOc1ccccc1NC(=O)Nc1ccc2nc(N3CCN(C)CC3)cc(C)c2c1	–	inconclusive [falling, single point]
Cc1ccc(NC(=O)C2CCCN(c3cnccn3)C2)cc1Cl (configuration not stated)	–	inconclusive [falling, single point]
COc1ccc2c(c1)CCc1c(C(=O)Nc3cnn(Cc4ccc(Cl)cc4Cl)c3)noc1-2	inactive: -7.52%	–
CCOc1ccc(CCNC(=O)c2cc3cc4cc(OC)ccc4nc3s2)cc1OCC	inactive: -29.5%	–
COc1ccc(NC(=O)CCc2nc3c(C)nn(-c4ccc(C)cc4)c3n(C)c2=O)c(OC)c1	–	inconclusive [activator, single point]
CCOc1ccc(-c2c(C)nn3c(C)c(C(=O)Nc4cccc(Cl)c4C)cnc23)cc1OCC	–	inconclusive [falling, single point]
O=C(CCS(=O)(=O)c1nc(-c2cccs2)cc(C(F)(F)F)n1)Nc1ccc(Br)cc1	–	inconclusive [falling, partial curve, poor fit]
Cc1cc(C)c(NC(=O)CSc2n[nH]c(-c3ccccc3Cl)n2)c(C)c1	–	inconclusive [falling, partial curve, poor fit]

SMILES	activity change, negative = inhibition	Potency
COc1ccc(NC(=O)Cn2c(=O)cc(C)c3c(C)nn(C)c32)cc1	inactive: -14.2%	–
O=C(Cn1cc(SCc2ccc(Br)cc2)c2ccccc21)N1CCCCC1	–	inconclusive [falling, single point]
Cn1nnnc1SCCCNCc1cccc(OCc2ccccc2F)c1	–	inconclusive [falling, single point]
Cc1ccc(/C=C(\C#N)C(=O)Nc2ccc(Br)cc2)o1	–	inconclusive [falling, single point]
CCOC(=O)c1ccc2nc(C)cc(Nc3ccc(OC(C)C)cc3)c2c1	–	inconclusive [falling, single point]
CC(Sc1nc2c(c(=O)[nH]1)CCCC2)C(=O)Nc1cc(C(F)(F)F)ccc1Cl (configuration not stated)	inactive: 4.87%	–
CCOC(=O)C(CC)n1nc(C)c2c(C)n(-c3ccc(C)cc3)nc2c1=O (configuration not stated)	inactive: -1.42%	–
CCOC(=O)c1ccc(N2C(=O)c3n[nH]c(-c4cccs4)c3C2c2ccc(CC)cc2)cc1 (configuration not stated)	–	inconclusive [falling, single point]
O=C(NCc1ccccc1F)C(=O)NCC(c1ccco1)S(=O)(=O)c1cccs1 (configuration not stated)	inactive: -1.28%	–
COc1ccc(OC)c(NC(=O)c2cn(CC(C)C)c(=O)c3cc(OC)c(OC)cc23)c1	–	inconclusive [falling, partial curve, poor fit]
CCOC(=O)c1cnc2ccc(C)cc2c1Nc1ccc(N(CC)CC)cc1	–	inconclusive [falling, partial curve, poor fit]
COc1ccc(CNC(=O)c2cc3sccc3n2Cc2ccc(C)cc2)cc1	inactive: -9.44%	–
Cc1ccc2c(CNCc3ccc(C)o3)c(C(=O)O)n(Cc3ccc(F)cc3)c2c1	–	inconclusive [falling, partial curve, poor fit]
COC(=O)c1c(C)oc2ccc(N(C(=O)c3ccncc3)S(=O)(=O)c3cc(C)ccc3C)cc12	–	inconclusive [falling, single point]
COc1cccc(NC(=O)c2cc3c(-c4ccc(Cl)cc4)nn(C)c3s2)c1	inactive: -1.85%	–
COc1ccc(NC(=O)CCCSc2nc(-c3ccco3)cc(C(F)(F)F)n2)cc1	–	inconclusive [falling, partial curve, poor fit]
COc1cccc(C(=O)c2cn(CC(=O)Nc3cc(Cl)c(OC)cc3OC)c3nc(C)ccc3c2=O)c1	inactive: 3.97%	–
CCOC(=O)C1CCCN(C(=O)Cn2c(=O)cc(C)c3c(C)nn(C)c32)C1 (configuration not stated)	–	inconclusive [falling, single point]
COc1ccc(C(=O)c2cnc3ccc(C)cc3c2S(=O)(=O)c2ccccc2)cc1	–	inconclusive [falling, single point]
CCOc1ccc(-c2nnc(SCC(=O)NCc3ccc(Cl)cc3)o2)cc1	–	inconclusive [falling, partial curve, poor fit]
COc1ccc(-c2ccc3c(N)c(C(=O)Nc4cccc(C)c4)sc3n2)cc1	–	inconclusive [falling, partial curve]
Cc1cccc(N2CCN(C(=O)Cn3c(=O)c4cccn4c4ccc(F)cc43)CC2)c1C	–	inconclusive [falling, single point]
Cc1ccc(NC(=O)CCc2c(C)nc3nc(C)nn3c2C)c(Cl)c1	inactive: -0.386%	–

SMILES	activity change, negative = inhibition	Potency
O=C(NCc1ccccc1Cl)C1CCC(CNS(=O)(=O)c2ccc(Br)s2)CC1 (configuration not stated)	–	inconclusive [falling, single point]
COc1ccc(CCNC(=O)c2nn(C)c3c2CSc2ccccc2-3)cc1OC	–	inconclusive [falling, single point]
CCN1CCC(N(Cc2ccc3c(c2)OCO3)C(=O)Nc2ccccc2OC)CC1	inactive: -17.1%	–
CCN1CCN(c2cc(C)c3cc(NC(=O)/C=C/c4cccc(Cl)c4)ccc3n2)CC1	–	inconclusive [falling, single point]
COc1ccccc1-c1cc(C(F)(F)F)nc(S(=O)(=O)CCCC(=O)Nc2ccc(F)c(Cl)c2)n1	inactive: 8.88%	–
Cc1c(NS(C)(=O)=O)cccc1-c1nc2ccccc2s1	inactive: -5.87%	–
COc1ccc(-n2nnc(-c3nsc(NC(=O)c4ccc(C)c(C)c4)n3)c2C)cc1Cl	–	inconclusive [falling, single point]
CCCc1nnc(NC(=O)Cc2coc3ccc(C(C)C)cc23)s1	inactive: -7.41%	–
Cc1ccc(CNC(=O)CCCCCn2c(=O)c3sccc3n(CC(=O)Nc3ccc(C)c(F)c3)c2=O)cc1	–	inconclusive [falling, single point]
CN1CCc2c(sc(NC(=O)CSc3ccc(F)cc3)c2-c2nc3ccccc3s2)C1	–	inconclusive [falling, single point]
CCN1C(C(=O)c2ccccc2)=C(OC(=O)COc2ccc(OC)cc2)c2ccccc2S1(=O)=O	–	inconclusive [falling, partial curve, poor fit]
O=C(CCS(=O)(=O)c1nc(-c2cccs2)cc(C(F)(F)F)n1)Nc1cc(Br)ccc1O	–	inconclusive [falling, full curve, poor fit]
Cc1ccc(NC(=O)Cn2c(=O)n(Cc3nc(C)no3)c(=O)c3cc4c(cc32)OCO4)c(C)c1	–	inconclusive [falling, partial curve, poor fit]
Cc1ccc(CCNC(=O)c2ccc3c(c2)nc2n3CCCCC2)cc1	inactive: -8.13%	–
COc1ccccc1/C=C/c1nc(C#N)c(N2CCN(C)CC2)o1	inactive: -4.92%	–
Cc1cccc(NC(=O)Cn2ncc3c4ccccc4n(Cc4ccccc4)c3c2=O)c1C	inactive: -4.47%	–
CCOC(=O)CCn1cnc2onc(-c3cc(OC)ccc3Cl)c2c1=O	inactive: -0.152%	–
Cc1ccc(C(=O)N2CCc3cc(CNC(=O)c4ccc(Br)cc4)ccc32)cc1	inactive: -0.771%	–
CCOC(=O)c1cnc2c(Cl)cc(Cl)cc2c1Nc1cc(C(=O)O)ccc1C	–	inconclusive [falling, single point]
COCCCn1c(=N)c(C(=O)NCc2ccco2)cc2c(=O)n3cccc(C)c3nc21	inactive: 2.43%	–
Cc1cc(C)c(NC(=O)c2cc(S(=O)(=O)NCCC3=CCCCC3)ccc2F)c(C)c1	–	inconclusive [falling, single point]

Source: PubChem BioAssay AID493208 (National Center for Advancing Translational Sciences (NCATS), 2011)
